{"source": "the supplement of paper PMC8728848", "binders": {"B1": {"name": "CIH1 (Colletotrichum higginsianum) (protein)", "chain": "LPQATPTTPTPTSASAAATISATSSPTCSPGPVIDYTVVSGDTLTIISQRFSSGICNIADASGITNPNFLSLGQVLQVPTYVCTPDNTSCLAKEGSDTCVEGGPATHTIVAGDTFFLVAQSLGLDVNALLAANEGVDPLLLQIGDVINIPVC"}}, "experiment_in_all_cases": "glycan array binding signal (z-score within array); higher = stronger binding", "conditions_in_all_cases": "glycan notation: IUPAC condensed, linker removed", "key": {"[1]": {"biological_target": "Neu5Ac(a2-3)Gal(b1-3)[Neu5Ac(a2-6)]GlcNAc(b1-3)[Fuc(a1-3)[Gal(b1-4)]GlcNAc(b1-6)]Gal(b1-4)Glc", "how_it_was_run": "(§1)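 Negative Z-scores can be read as non-binding. The Z-score is calculated within each array and then averaged across arrays of one protein sequence at different concentrations or buffers and across linkers. Arrays, 3228 in all, were curated from the Consortium for Functional Glycomics database and kept only where the protein sequence was available.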"}, "Neu5Ac(a2-3)Gal(b1-4)Glc": {"biological_target": "Neu5Ac(a2-3)Gal(b1-4)Glc", "how_it_was_run": "as §1"}, "[2]": {"biological_target": "Neu5Ac(a2-3)Gal(b1-4)GlcNAc", "how_it_was_run": "as §1"}, "[3]": {"biological_target": "Neu5Ac(a2-3)Gal(b1-4)GlcNAc(b1-2)Man", "how_it_was_run": "as §1"}, "[4]": {"biological_target": "Neu5Ac(a2-3)Gal(b1-4)GlcNAc(b1-2)Man(a1-3)[GlcNAc(b1-2)Man(b1-4)GlcNAc(b1-2)Man(a1-6)]Man(b1-4)GlcNAc(b1-4)GlcNAc", "how_it_was_run": "as §1"}, "[5]": {"biological_target": "Neu5Ac(a2-3)Gal(b1-4)GlcNAc(b1-2)Man(a1-3)[Neu5Ac(a2-3)Gal(b1-4)GlcNAc(b1-2)Man(a1-6)]Man(b1-4)GlcNAc(b1-4)[Fuc(a1-6)]GlcNAc", "how_it_was_run": "as §1"}, "[6]": {"biological_target": "Neu5Ac(a2-3)Gal(b1-4)GlcNAc(b1-2)Man(a1-3)[Neu5Ac(a2-6)Gal(b1-4)GlcNAc(b1-2)Man(a1-6)]Man(b1-4)GlcNAc(b1-4)GlcNAc", "how_it_was_run": "as §1"}, "[7]": {"biological_target": "Neu5Ac(a2-3)Gal(b1-4)GlcNAc(b1-2)[Neu5Ac(a2-3)Gal(b1-4)GlcNAc(b1-6)]Man(a1-6)[Neu5Ac(a2-3)Gal(b1-4)GlcNAc(b1-2)Man(a1-3)]Man(b1-4)GlcNAc(b1-4)GlcNAc", "how_it_was_run": "as §1"}, "[8]": {"biological_target": "Neu5Ac(a2-3)Gal(b1-4)GlcNAc(b1-3)Gal", "how_it_was_run": "as §1"}, "[9]": {"biological_target": "Neu5Ac(a2-3)Gal(b1-4)GlcNAc(b1-3)Gal(b1-3)GlcNAc", "how_it_was_run": "as §1"}, "[10]": {"biological_target": "Neu5Ac(a2-3)Gal(b1-4)GlcNAc(b1-3)Gal(b1-4)GlcNAc", "how_it_was_run": "as §1"}, "[11]": {"biological_target": "Neu5Ac(a2-3)Gal(b1-4)GlcNAc(b1-3)Gal(b1-4)GlcNAc(b1-3)Gal(b1-4)GlcNAc", "how_it_was_run": "as §1"}, "[12]": {"biological_target": "Neu5Ac(a2-3)Gal(b1-4)GlcNAc(b1-3)Gal(b1-4)[Fuc(a1-3)]GlcNAc", "how_it_was_run": "as §1"}, "[13]": {"biological_target": "Neu5Ac(a2-3)Gal(b1-4)GlcNAc(b1-3)GalNAc", "how_it_was_run": "as §1"}, "[14]": {"biological_target": "Neu5Ac(a2-3)Gal(b1-4)GlcNAc(b1-3)[Neu5Ac(a2-3)Gal(b1-4)GlcNAc(b1-6)]GalNAc", "how_it_was_run": "as §1"}, "[15]": {"biological_target": "Neu5Ac(a2-3)Gal(b1-4)GlcNAc(b1-6)GalNAc", "how_it_was_run": "as §1"}, "[16]": {"biological_target": "Neu5Ac(a2-3)Gal(b1-4)GlcNAc(b1-6)[Gal(b1-3)]GalNAc", "how_it_was_run": "as §1"}, "[17]": {"biological_target": "Neu5Ac(a2-3)Gal(b1-4)GlcNAc(b1-6)[Neu5Ac(a2-3)Gal(b1-3)]GalNAc", "how_it_was_run": "as §1"}, "[18]": {"biological_target": "Neu5Ac(a2-3)Gal(b1-4)GlcNAc6S", "how_it_was_run": "as §1"}, "[19]": {"biological_target": "Neu5Ac(a2-3)Gal(b1-4)[Fuc(a1-3)]GlcNAc", "how_it_was_run": "as §1"}, "[20]": {"biological_target": "Neu5Ac(a2-3)Gal(b1-4)[Fuc(a1-3)]GlcNAc(b1-3)Gal", "how_it_was_run": "as §1"}, "[21]": {"biological_target": "Neu5Ac(a2-3)Gal(b1-4)[Fuc(a1-3)]GlcNAc(b1-3)Gal(b1-4)GlcNAc", "how_it_was_run": "as §1"}, "[22]": {"biological_target": "Neu5Ac(a2-3)Gal(b1-4)[Fuc(a1-3)]GlcNAc(b1-3)Gal(b1-4)[Fuc(a1-3)]GlcNAc(b1-3)Gal(b1-4)[Fuc(a1-3)]GlcNAc", "how_it_was_run": "as §1"}, "[23]": {"biological_target": "Neu5Ac(a2-3)Gal(b1-4)[Fuc(a1-3)]GlcNAc(b1-3)GalNAc", "how_it_was_run": "as §1"}, "[24]": {"biological_target": "Neu5Ac(a2-3)Gal(b1-4)[Fuc(a1-3)]GlcNAc(b1-6)[Gal(b1-3)]GalNAc", "how_it_was_run": "as §1"}, "[25]": {"biological_target": "Neu5Ac(a2-3)Gal(b1-4)[Fuc(a1-3)]GlcNAc6S", "how_it_was_run": "as §1"}, "[26]": {"biological_target": "Neu5Ac(a2-3)Gal6S(b1-4)GlcNAc", "how_it_was_run": "as §1"}, "[27]": {"biological_target": "Neu5Ac(a2-3)Gal6S(b1-4)[Fuc(a1-3)]GlcNAc", "how_it_was_run": "as §1"}, "Neu5Ac(a2-3)GalNAc": {"biological_target": "Neu5Ac(a2-3)GalNAc", "how_it_was_run": "as §1"}, "[28]": {"biological_target": "Neu5Ac(a2-3)GalNAc(b1-4)GlcNAc", "how_it_was_run": "as §1"}, "[29]": {"biological_target": "Neu5Ac(a2-3)[GalNAc(b1-4)]Gal(b1-4)Glc", "how_it_was_run": "as §1"}, "[30]": {"biological_target": "Neu5Ac(a2-3)[GalNAc(b1-4)]Gal(b1-4)GlcNAc", "how_it_was_run": "as §1"}, "[31]": {"biological_target": "Neu5Ac(a2-3)[GalNAc(b1-4)]Gal(b1-4)GlcNAc(b1-3)GalNAc", "how_it_was_run": "as §1"}, "[32]": {"biological_target": "Neu5Ac(a2-3)[Neu5Ac(a2-6)]GalNAc", "how_it_was_run": "as §1"}, "Neu5Ac(a2-6)Gal": {"biological_target": "Neu5Ac(a2-6)Gal", "how_it_was_run": "as §1"}, "[33]": {"biological_target": "Neu5Ac(a2-6)Gal(b1-3)GlcNAc(b1-3)[Gal(b1-4)GlcNAc(b1-6)]Gal(b1-4)Glc", "how_it_was_run": "as §1"}, "Neu5Ac(a2-6)Gal(b1-4)Glc": {"biological_target": "Neu5Ac(a2-6)Gal(b1-4)Glc", "how_it_was_run": "as §1"}, "[34]": {"biological_target": "Neu5Ac(a2-6)Gal(b1-4)GlcNAc", "how_it_was_run": "as §1"}, "[35]": {"biological_target": "Neu5Ac(a2-6)Gal(b1-4)GlcNAc(b1-2)Man(a1-3)Man(b1-4)GlcNAc(b1-4)GlcNAc", "how_it_was_run": "as §1"}, "[36]": {"biological_target": "Neu5Ac(a2-6)Gal(b1-4)GlcNAc(b1-2)Man(a1-3)[Gal(b1-4)GlcNAc(b1-2)Man(a1-6)]Man(b1-4)GlcNAc(b1-4)GlcNAc", "how_it_was_run": "as §1"}, "[37]": {"biological_target": "Neu5Ac(a2-6)Gal(b1-4)GlcNAc(b1-2)Man(a1-3)[GlcNAc(b1-2)Man(a1-6)]Man(b1-4)GlcNAc(b1-4)GlcNAc", "how_it_was_run": "as §1"}, "[38]": {"biological_target": "Neu5Ac(a2-6)Gal(b1-4)GlcNAc(b1-2)Man(a1-3)[GlcNAc(b1-2)Man(b1-4)GlcNAc(b1-2)Man(a1-6)]Man(b1-4)GlcNAc(b1-4)GlcNAc", "how_it_was_run": "as §1"}}, "note": "This is one part of the list.", "data": [{"binder": "B1", "values": [{"measurement": "glycan array binding signal (z-score)", "setting": "[1]", "value": -0.077}, {"measurement": "glycan array binding signal (z-score)", "setting": "Neu5Ac(a2-3)Gal(b1-4)Glc", "value": -0.071}, {"measurement": "glycan array binding signal (z-score)", "setting": "[2]", "value": -0.068}, {"measurement": "glycan array binding signal (z-score)", "setting": "[3]", "value": -0.049}, {"measurement": "glycan array binding signal (z-score)", "setting": "[4]", "value": -0.08}, {"measurement": "glycan array binding signal (z-score)", "setting": "[5]", "value": -0.029}, {"measurement": "glycan array binding signal (z-score)", "setting": "[6]", "value": -0.064}, {"measurement": "glycan array binding signal (z-score)", "setting": "[7]", "value": -0.064}, {"measurement": "glycan array binding signal (z-score)", "setting": "[8]", "value": -0.066}, {"measurement": "glycan array binding signal (z-score)", "setting": "[9]", "value": -0.062}, {"measurement": "glycan array binding signal (z-score)", "setting": "[10]", "value": -0.072}, {"measurement": "glycan array binding signal (z-score)", "setting": "[11]", "value": -0.063}, {"measurement": "glycan array binding signal (z-score)", "setting": "[12]", "value": -0.073}, {"measurement": "glycan array binding signal (z-score)", "setting": "[13]", "value": -0.049}, {"measurement": "glycan array binding signal (z-score)", "setting": "[14]", "value": -0.081}, {"measurement": "glycan array binding signal (z-score)", "setting": "[15]", "value": -0.078}, {"measurement": "glycan array binding signal (z-score)", "setting": "[16]", "value": -0.049}, {"measurement": "glycan array binding signal (z-score)", "setting": "[17]", "value": -0.054}, {"measurement": "glycan array binding signal (z-score)", "setting": "[18]", "value": -0.036}, {"measurement": "glycan array binding signal (z-score)", "setting": "[19]", "value": -0.069}, {"measurement": "glycan array binding signal (z-score)", "setting": "[20]", "value": -0.064}, {"measurement": "glycan array binding signal (z-score)", "setting": "[21]", "value": -0.067}, {"measurement": "glycan array binding signal (z-score)", "setting": "[22]", "value": -0.065}, {"measurement": "glycan array binding signal (z-score)", "setting": "[23]", "value": -0.08}, {"measurement": "glycan array binding signal (z-score)", "setting": "[24]", "value": -0.036}, {"measurement": "glycan array binding signal (z-score)", "setting": "[25]", "value": -0.061}, {"measurement": "glycan array binding signal (z-score)", "setting": "[26]", "value": -0.08}, {"measurement": "glycan array binding signal (z-score)", "setting": "[27]", "value": -0.072}, {"measurement": "glycan array binding signal (z-score)", "setting": "Neu5Ac(a2-3)GalNAc", "value": -0.046}, {"measurement": "glycan array binding signal (z-score)", "setting": "[28]", "value": -0.06}, {"measurement": "glycan array binding signal (z-score)", "setting": "[29]", "value": -0.067}, {"measurement": "glycan array binding signal (z-score)", "setting": "[30]", "value": -0.087}, {"measurement": "glycan array binding signal (z-score)", "setting": "[31]", "value": -0.105}, {"measurement": "glycan array binding signal (z-score)", "setting": "[32]", "value": -0.08}, {"measurement": "glycan array binding signal (z-score)", "setting": "Neu5Ac(a2-6)Gal", "value": -0.056}, {"measurement": "glycan array binding signal (z-score)", "setting": "[33]", "value": -0.054}, {"measurement": "glycan array binding signal (z-score)", "setting": "Neu5Ac(a2-6)Gal(b1-4)Glc", "value": -0.068}, {"measurement": "glycan array binding signal (z-score)", "setting": "[34]", "value": -0.069}, {"measurement": "glycan array binding signal (z-score)", "setting": "[35]", "value": -0.004}, {"measurement": "glycan array binding signal (z-score)", "setting": "[36]", "value": -0.065}, {"measurement": "glycan array binding signal (z-score)", "setting": "[37]", "value": -0.083}, {"measurement": "glycan array binding signal (z-score)", "setting": "[38]", "value": -0.079}]}]}
